Reference: the supplement of paper PMC12217912
The list shows a part of the results. The full chains were built here from the parent and the listed change. Inactive controls read about 0.05.

B1: TEV protease; numbered along this chain (parent)
chain: MGESLFKGPRDYNPISSSICHLTNESDGHTTSLYGIGFGPFIITNKHLFRRNNGTLVVQSLHGVFKVKDTTTLQQHLVDGRDMIIIRMPKDFPPFPQKLKFREPQREERICLVTTNFQTKSMSSMVSDTSCTFPSGDGIFWKHWIQTKDGQCGSPLVSTRDGFIVGIHSASNFTNTNNYFTSVPKNFMELLTNQEAQQWVSGWRLNADSVLWGGHKVFMVKPEEPFQPVKEATQL

Variants of: B1
Assay: raw area under fraction-flipped curve 0-4 h after induction (AUC4h, not background-subtracted), DNA-recorder readout of cleavage of the substrate (dimensionless); higher = more cleavage of the substrate by the protease variant
Settings: temperature: 34 °C; time window: 0-4 h after rhamnose induction
Procedure: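 In vivo DNA recorder in E. coli TOP10(DE3) ΔrhaA at 34 °C. Each TEVp single-site mutant (parent TEVp 0) is paired with a single-site variant of the 7-mer TEVs (canonical ENLYFQ|S). The substrate sits between flexible linkers in a Bxb1-sfGFP-TEVs-SsrA fusion, so cleavage stabilises Bxb1 and speeds flipping of a recombination array, read by NGS. The value is the raw area under the fraction-flipped curve over 0-4 h after rhamnose induction (AUC4h), with ≥20 reads per time point. It is not background-subtracted; inactive controls average about 0.047.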
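Also: Bxb1 expression induced with 0.2% (w/v) L-rhamnose at OD600 near 0.5, cultures sampled hourly, flipped fraction per protease–substrate barcode pair counted by paired-end Illumina sequencing.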

Variant	area with substrate ENAYFQS	area with substrate ENCYFQS	area with substrate ENDYFQS	area with substrate ENEYFQS	area with substrate ENFYFQS	area with substrate ENGYFQS	area with substrate ENHYFQS	area with substrate ENIYFQS	area with substrate ENKYFQS	area with substrate ENNYFQS	area with substrate ENPYFQS	area with substrate ENQYFQS	area with substrate ENRYFQS	area with substrate ENSYFQS	area with substrate ENTYFQS	area with substrate ENVYFQS	area with substrate ENWYFQS	area with substrate ENYYFQS	area with substrate ENMYFQS
MGESLFKGPRDYNPISSSICHLTNESDGHTTSLYGIGFGPFYITNKHLFRRNNGTLVVQSLHGVFKVKDTTTLQQHLVDGRDMIIIRMPKDFPPFPQKLKFREPQREERICLVTTNFQTKSMSSMVSDTSCTFPSGDGIFWKHWIQTKDGQCGSPLVSTRDGFIVGIHSASNFTNTNNYFTSVPKNFMELLTNQEAQQWVSGWRLNADSVLWGGHKVFMVKPEEPFQPVKEATQL [I42Y]	0.0482	0.0419	0.0457	0.0567	0.0563	0.0519	0.0495	0.0238	0.0463	0.0464	0.0412	0.0445	0.0486	0.0493	0.0519	0.0369	0.0419	0.0363	–
MGESLFKGPRDYNPISSSICHLTNESDGHTTSLYGIGFGPFCITNKHLFRRNNGTLVVQSLHGVFKVKDTTTLQQHLVDGRDMIIIRMPKDFPPFPQKLKFREPQREERICLVTTNFQTKSMSSMVSDTSCTFPSGDGIFWKHWIQTKDGQCGSPLVSTRDGFIVGIHSASNFTNTNNYFTSVPKNFMELLTNQEAQQWVSGWRLNADSVLWGGHKVFMVKPEEPFQPVKEATQL [I42C]	0.0545	0.0628	0.0643	0.0652	0.0608	0.0612	0.0569	0.0931	0.0598	0.0617	0.0342	0.0635	0.0564	0.055	0.0577	0.0561	–	–	–
MGESLFKGPRDYNPISSSICHLTNESDGHTTSLYGIGFGPFIITNPHLFRRNNGTLVVQSLHGVFKVKDTTTLQQHLVDGRDMIIIRMPKDFPPFPQKLKFREPQREERICLVTTNFQTKSMSSMVSDTSCTFPSGDGIFWKHWIQTKDGQCGSPLVSTRDGFIVGIHSASNFTNTNNYFTSVPKNFMELLTNQEAQQWVSGWRLNADSVLWGGHKVFMVKPEEPFQPVKEATQL [K46P]	0.0467	0.0647	0.0562	0.0508	0.0828	0.0518	0.0589	0.0677	0.0548	0.0587	–	0.0526	–	0.0465	–	0.0652	0.0054	0.0583	0.0552
MGESLFKGPRDYNPISSSICHLTNESDGHTTSLYGIGFWPFIITNKHLFRRNNGTLVVQSLHGVFKVKDTTTLQQHLVDGRDMIIIRMPKDFPPFPQKLKFREPQREERICLVTTNFQTKSMSSMVSDTSCTFPSGDGIFWKHWIQTKDGQCGSPLVSTRDGFIVGIHSASNFTNTNNYFTSVPKNFMELLTNQEAQQWVSGWRLNADSVLWGGHKVFMVKPEEPFQPVKEATQL [G39W]	0.0537	–	0.0461	0.0454	–	0.0368	0.0615	0.0399	0.0607	0.0426	0.0451	0.0443	0.0384	0.0519	0.0383	0.0379	–	–	0.0421
MGESLFKGPRDYNPISSSICHLTNESDGHTTSLYGIGFQPFIITNKHLFRRNNGTLVVQSLHGVFKVKDTTTLQQHLVDGRDMIIIRMPKDFPPFPQKLKFREPQREERICLVTTNFQTKSMSSMVSDTSCTFPSGDGIFWKHWIQTKDGQCGSPLVSTRDGFIVGIHSASNFTNTNNYFTSVPKNFMELLTNQEAQQWVSGWRLNADSVLWGGHKVFMVKPEEPFQPVKEATQL [G39Q]	0.0391	0.0521	0.0323	0.0328	–	0.0359	–	–	–	0.0541	0.033	0.0386	0.0362	0.0477	0.0063	0.0412	–	0.0481	–
MGESLFKGPRDYNPISSSICHLTNESDGHTTSLYGIGFGPWIITNKHLFRRNNGTLVVQSLHGVFKVKDTTTLQQHLVDGRDMIIIRMPKDFPPFPQKLKFREPQREERICLVTTNFQTKSMSSMVSDTSCTFPSGDGIFWKHWIQTKDGQCGSPLVSTRDGFIVGIHSASNFTNTNNYFTSVPKNFMELLTNQEAQQWVSGWRLNADSVLWGGHKVFMVKPEEPFQPVKEATQL [F41W]	0.07	0.0643	0.0652	0.0495	–	0.0599	–	–	–	–	0.0649	0.0505	0.0547	0.0495	0.0612	0.0641	0.0286	–	0.0698
MGESLFKGPRDYNPISSSICHLTNESDGHTTSLYGIGFGPFIITNKLLFRRNNGTLVVQSLHGVFKVKDTTTLQQHLVDGRDMIIIRMPKDFPPFPQKLKFREPQREERICLVTTNFQTKSMSSMVSDTSCTFPSGDGIFWKHWIQTKDGQCGSPLVSTRDGFIVGIHSASNFTNTNNYFTSVPKNFMELLTNQEAQQWVSGWRLNADSVLWGGHKVFMVKPEEPFQPVKEATQL [H47L]	0.0401	0.0492	0.0564	0.0671	0.0624	–	0.0435	0.0539	–	0.0747	–	0.0615	–	0.0821	0.0575	0.0704	–	0.0595	0.0522
MGESLFKGPRDYNPISSSICHLTNESDGHTTSLYGIGFGPFIITNKKLFRRNNGTLVVQSLHGVFKVKDTTTLQQHLVDGRDMIIIRMPKDFPPFPQKLKFREPQREERICLVTTNFQTKSMSSMVSDTSCTFPSGDGIFWKHWIQTKDGQCGSPLVSTRDGFIVGIHSASNFTNTNNYFTSVPKNFMELLTNQEAQQWVSGWRLNADSVLWGGHKVFMVKPEEPFQPVKEATQL [H47K]	0.0613	0.0555	0.0673	0.0567	0.0596	–	0.0396	0.0649	0.058	0.0606	0.0706	0.059	0.0401	0.0503	–	0.0451	–	–	0.0519
MGESLFKGPRDYNPISSSICHLTNESDGHTTSLYGIGFGPFIITNKDLFRRNNGTLVVQSLHGVFKVKDTTTLQQHLVDGRDMIIIRMPKDFPPFPQKLKFREPQREERICLVTTNFQTKSMSSMVSDTSCTFPSGDGIFWKHWIQTKDGQCGSPLVSTRDGFIVGIHSASNFTNTNNYFTSVPKNFMELLTNQEAQQWVSGWRLNADSVLWGGHKVFMVKPEEPFQPVKEATQL [H47D]	0.0663	0.0604	0.0663	–	–	–	0.0568	–	–	–	0.0689	0.052	0.0556	0.0525	–	0.0669	–	–	0.0469
